Measured values published in PubChem BioAssay AID1347417 (National Center for Advancing Translational Sciences (NCATS), 2020).
The whole screen tested about 120,000 compounds, of which about 5,300 (4.4%) were called active. The shares of active, inactive and inconclusive entries below differ from those in the screen. Calls follow the shape of the dose curve; as a rule, active = well fitted inhibition curve with a large enough effect; inconclusive = small, poorly fitted or top-dose-only effect; inactive = no such curve, though single readings can be large or run the other way. Potencies beside an inconclusive call are fits to weak or partial responses and may not hold up.

Experiment: qHTS Primary assay for Inhibitors of Plasmodium falciparum Dd2 growth in vitro; also: nearly all actives have a fitted effect of over 65% in size;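 as to activity, negative = inhibition: plate controls were DMSO vehicle for no effect and reference drug for full effect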
Settings: P. falciparum Dd2 growth, SYBR Green, 72 h; activity, negative = inhibition: at 28.9 µM (top of the series) unless noted; series mostly up to 28.9 µM
Method in brief: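 Readout: SYBR Green fluorescence, 485 nm excitation, 535 nm emission, after ~16 h lysis at 37C. Before that, Dd2-infected red cells (2.5% hematocrit) grew 72 h with compound, 29 uM top final concentration.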
Potency is read from the fitted curve at half-maximal effect; tags tell the direction and shape of the fitted curve.

| SMILES | Potency | activity, negative = inhibition | outcome |
| --- | --- | --- | --- |
| O=C(Nc1cnc(-c2cccc(Cl)c2)nc1)C1CCCO1 (configuration not stated) | inconclusive: 11.2 µM [inhibitor, single point] |  |  |
| C[C@@H]1CN(C(=O)Cc2cn3ccsc3n2)CC[C@@]1(O)C1CCOCC1 |  | inactive: -13.5% |  |
| Cc1nnc(-c2cc(C(=O)NCC(C)C)ccn2)n1CCc1ccccc1 |  | inactive: -15.8% [at 44.1 µM] |  |
| CCC(O)c1cc2n(n1)CCN(C(=O)Cn1nc(C)c3ccccc3c1=O)C2 (configuration not stated) |  | inactive: 2.4% |  |
| COC(=O)[C@@H]1Cc2ncn(Cc3ccccc3)c2CN1C(=O)CC(C)(C)C | inconclusive: 8.91 µM [inhibitor, partial curve] |  |  |
| N#Cc1ccc(CN2CC[C@H]3C(=O)NCCCCCCN(Cc4ccncc4)[C@@H]3C2)cc1 | inconclusive: 20 µM [inhibitor, single point] |  |  |
| O=C(N[C@H]1CCN2C(=O)c3cc(-c4ccccc4)ccc3NC(=O)[C@H]12)c1cnccn1 | active: 11.2 µM |  |  |
| O=C(c1ccc2c(c1)N(Cc1ccccc1)C(=O)c1ccccc1S2(=O)=O)N1CCOCC1 | inconclusive: 11.2 µM [inhibitor, single point] |  |  |
| COc1ccc(NC(=O)C(NC(=O)/C=C\c2ccc3c(c2)OCO3)c2ccc(C)cc2)cc1 (configuration not stated) | inconclusive: 17.8 µM [inhibitor, single point] |  |  |
| CCc1ccc(-n2c(N3CCN(c4ccc(F)cc4)CC3)nc3ccccc3c2=O)cc1 | active: 5.62 µM |  |  |
| O=C(C1CCCC1)N1CC2(CCN(Cc3ccc(Cl)cc3)C2)OCc2ccccc21 (configuration not stated) | inconclusive: 8.91 µM [inhibitor, partial curve] |  |  |
| O=c1c2c3c(nn2ccn1Cc1cc(F)cc(F)c1)CCCC3 | inconclusive: 12.6 µM [inhibitor, single point] |  |  |
| COCC(=O)N1CCCN(Cc2ccncc2)C(c2ccccc2)CC(=O)NCC1 (configuration not stated) | inconclusive: 17.8 µM [inhibitor, single point] |  |  |
| O=C(N1CCC(Cc2nc(C3CCOCC3)no2)CC1)C1(c2ccccc2)CC1 |  | inactive: 10.1% |  |
| O=C(c1cn(Cc2ccc(Cl)cc2)nn1)N1CCCC(OCc2cccnc2)C1 (configuration not stated) |  | inactive: -5.64% |  |
| CC(=O)N1CCCc2cc(S(=O)(=O)Nc3ccc(Cl)cc3F)ccc21 | inconclusive: 11.2 µM [inhibitor, single point] |  |  |
| COc1ccc(CC(=O)N2CCc3c([nH]c4ccccc34)C2c2ccc(SC)cc2)cc1 (configuration not stated) | inconclusive: 12.6 µM [inhibitor, single point] |  |  |
| CC(C)(C)CN1CCOC[C@H]1c1ncc(-c2ccc(F)cc2)[nH]1 | inconclusive: 7.08 µM [inhibitor, partial curve, poor fit] |  |  |
| COc1ccc(Nc2ccc3c(n2)CN(Cc2ccccc2C)C(=O)CO3)cn1 |  | inactive: -2.87% [at 44.1 µM] |  |
| c1csc(CNC[C@H]2Cn3ccnc3CO2)c1 | inconclusive: 39.8 µM [inhibitor, single point] |  |  |
| COC1CCCN(c2ncccc2-c2cc(-c3ccccc3)nc3c(C)noc23)C1 (configuration not stated) | inconclusive: 10 µM [inhibitor, partial curve] |  |  |
| c1coc(CN2CC[C@H](c3nnc(-c4ccncc4)o3)C2)c1 |  |  | inactive [at 44.1 µM] |
| CCCOCCCNC(=O)c1c(C)noc1-c1cccc(F)c1 | inconclusive: 3.98 µM [inhibitor, partial curve] |  |  |

| SMILES | Potency | activity, negative = inhibition | outcome |
| --- | --- | --- | --- |
| O=C(NCc1cc2n(n1)CCNC2)c1ccc(Cn2cnnn2)cc1 |  | inactive: 15.1% |  |
| O=C1NC2(CCN(Cc3cncs3)CC2)Oc2ccccc21 | inconclusive: 31.6 µM [inhibitor, single point] |  |  |
| OCC1(Cc2ccccc2)CCCN(Cc2cn[nH]c2-c2ccc(F)cc2)C1 (configuration not stated) | inconclusive: 20 µM [inhibitor, partial curve, poor fit] |  |  |
| COc1cccc(CNC(=O)[C@@H]2C[C@@H](O)CN2C2CCN(C(=O)c3ccc(C)nc3)CC2)c1 |  | inactive: -14.3% |  |
| O=C(c1ccc2cc[nH]c2c1)N1CCC2(CCCCO2)CC1 |  |  | inactive |
| Cc1nccn1CC(=O)NCC1CCN(c2cc(-c3ccc(F)cc3)[nH]n2)CC1 | inconclusive: 4.47 µM [inhibitor, partial curve] |  |  |
| CN(CCc1ccccn1)c1ncccc1CNC(=O)c1cc(C2CC2)no1 | inconclusive: 6.31 µM [inhibitor, partial curve, poor fit] |  |  |
| Cc1cc(CN2CCC3(C2)C(=O)Nc2ccccc23)no1 (configuration not stated) |  | inactive: 3.97% [at 44.1 µM] |  |
| COc1ccc(CN2CC(CN[S+](=O)([O-])c3ccccc3)C3(C2)CN(c2ccccc2)C3)cc1O (configuration not stated) | inconclusive: 0.199 µM [inhibitor, full curve, poor fit] |  |  |
| CCNC(=O)[C@@H]1C[C@H](NC(=O)c2ccc[nH]2)CN1C(=O)CCn1cnnn1 |  | inactive: -1.62% |  |
| O=C(CN1C(=O)CCc2cc(Br)ccc21)Nc1ccc(OC(F)(F)F)cc1 | inconclusive: 10 µM [inhibitor, single point] |  |  |
| CCOc1cccc(CN2CCC3(Cc4ccccc4CNC3=O)C2)c1 (configuration not stated) | inconclusive: 7.94 µM [inhibitor, single point] |  |  |
| COc1ccc([C@@H]2CN(S(=O)(=O)N3CCCC3)[C@@H]3C4CCN(CC4)[C@@H]32)cc1 | inconclusive: 11.2 µM [inhibitor, partial curve, poor fit] |  |  |
| O=C(C[C@@H]1O[C@H](CNC(=O)c2cccc(F)c2)[C@@H](O)[C@H]1O)NC1CC1 |  | inactive: 35.7% [at 44.1 µM] |  |
| CC(C)NC(=O)N1CCC2(CC1)CN(C(=O)c1ccc3[nH]ccc3c1)Cc1ccccc1O2 | active: 12.6 µM |  |  |
| Cc1cc(C)cc(NC(=O)CN2C(=O)c3ccccc3Sc3ccc(C(=O)N4CCCC4)cc32)c1 | inconclusive: 17.8 µM [inhibitor, single point] |  |  |
| Cc1ccc(CNC(=O)C2CCN(C(=O)N3CC4CC(C3)[C@H]3CCCC(=O)N3C4)CC2)o1 (some centres not stated) |  |  | inactive |
| CN1C(=O)CS(=O)(=O)C12CCN(C(=O)c1ccco1)CC2 |  | inactive: -1.24% |  |
| COCC(=O)Nc1ccc([C@@H](O)[C@H]2COCC(=O)N2)cc1 | inconclusive: 0.708 µM [inhibitor, partial curve, poor fit] |  |  |
| CCn1cc(CN2CCCC23CCN(c2ccc(C(F)(F)F)cn2)CC3)c(C)n1 | inconclusive: 2.24 µM [inhibitor, partial curve, poor fit] |  |  |
| CC(C(=O)N1CCn2nc(Cc3ccccc3)cc2C1)c1ccc(O)cc1 (configuration not stated) | inconclusive: 10 µM [inhibitor, single point] |  |  |
| Cc1cnc(-c2ccccc2)n1C1CCNCC1 | inconclusive: 10 µM [inhibitor, single point] |  |  |
| COc1ccc(NC(=O)CSC2=Nc3ccccc3C3=NC(CCC(=O)NC4CCCCC4)C(=O)N23)cc1Cl (configuration not stated) | inconclusive: 8.91 µM [inhibitor, partial curve, poor fit] |  |  |

| SMILES | Potency | activity, negative = inhibition | outcome |
| --- | --- | --- | --- |
| COc1ccc(S(=O)(=O)c2cn(C)c3cc(N4CCCCCC4)c(F)cc3c2=O)cc1 | active: 8.91 µM |  |  |
| Cc1ccc2c(c1)nc1n2[C@@H](CNC(=O)c2ccccn2)COC1 |  | inactive: -11.7% [at 44.1 µM] |  |
| O=C(C1=NO[C@@H]2CN(Cc3ccc(F)cc3)C[C@H]12)N1CCN(c2ccccn2)CC1 |  | inactive: -7.54% [at 44.1 µM] |  |
| Cc1ccnc(NC(c2cccc(O)c2)c2ccc3ccc(C)nc3c2O)c1 (configuration not stated) | inconclusive: 11.2 µM [inhibitor, single point] |  |  |
| CCc1ccccc1NC(=O)C1CN(S(=O)(=O)c2cccnc2)CC12CCCCC2 (configuration not stated) | inconclusive: 10 µM [inhibitor, single point] |  |  |
| O=C1c2c(nc(CNCc3cccnc3)n2Cc2ccccc2)NCCN1CC1CCOCC1 |  |  | inactive |
| CN(C)c1ccc(-c2cc3c(ccn3C)c(C(=O)NCc3cccnc3)n2)cc1 | inconclusive: 31.6 µM [inhibitor, single point] |  |  |
| Oc1ccccc1CNC1(Cc2cc(CN3CCOCC3)on2)COC1 |  | inactive: 14% [at 44.1 µM] |  |
| CCc1ccc2occ(CC(=O)Nc3c(C(=O)c4ccccc4)oc4ccccc34)c2c1 | inconclusive: 11.2 µM [inhibitor, single point] |  |  |
| O=C1CC2(CCN(Cc3cccnc3)CC2)Oc2ccccc21 | inconclusive: 2.51 µM [inhibitor, partial curve, poor fit] |  |  |
| Cc1cc(OCCN2CCOCC2)c(C)c2c1CC[C@@H]([C@H](C)C(=O)N1CCCCC1)C2 | active: 11.2 µM |  |  |
| CCOC(=O)c1c(-c2ccccc2)oc2ccc(NS(=O)(=O)c3ccc(C)cc3)cc12 | inconclusive: 17.8 µM [inhibitor, single point] |  |  |
| COc1ccccc1Cn1c(C2CC(=O)N(c3ccccc3OC)C2)nc2ccccc21 (configuration not stated) | inconclusive: 10 µM [inhibitor, single point] |  |  |
| O=C(CSC1=Nc2ccccc2C2=NC(Cc3ccccc3)C(=O)N12)Nc1cccc(Cl)c1 (configuration not stated) | inconclusive: 17.8 µM [inhibitor, single point] |  |  |
| CN(C)c1nccnc1OC1CCN(C(=O)CCCc2ccccc2)C1 (configuration not stated) |  | inactive: -23.5% |  |
| COc1ccc(Cl)cc1NC(=O)CSc1nc(-c2cccs2)cc(C(F)(F)F)n1 | inconclusive: 6.31 µM [inhibitor, partial curve, poor fit] |  |  |
| O=C(c1nnn2c1COC(c1ccc(Cl)cc1)C2)N1CCSCC1 (configuration not stated) | inconclusive: 17.8 µM [inhibitor, single point] |  |  |
| O=C1CCN(C(=O)c2ccccc2)CCCC(C(=O)N2CCc3ccccc32)CCN1 (configuration not stated) | inconclusive: 10 µM [inhibitor, single point] |  |  |
| O=S(=O)(N[C@H]1[C@H](O)[C@H](O)C[C@@H]1c1ccc(C(F)(F)F)cc1)c1ccc(F)cc1 | inconclusive: 20 µM [inhibitor, single point] |  |  |
| Cc1ccc(S(=O)(=O)N2CCCC(Cn3cnc4cccnc43)C2)cc1 (configuration not stated) |  | inactive: -29.9% |  |
| CCC(CC)N1CCCC(c2nc(-c3cccnc3)no2)CCNC(=O)CC1 (configuration not stated) |  | inactive: 17.6% |  |
